From PubChem BioAssay AID463173 (ICCB-Longwood Screening Facility, Harvard Medical School, 2010)
About 4,300 (8.3%) of roughly 52,000 compounds were called active. No stated cut-off is given here; in the data, active means survival mostly below about 52% (no sharp cut-off); inactive means mostly above about 56%. This is one part of the list.

tested on: DeltatarO mutant; assay: growth inhibition of S. aureus wild type versus tarO mutant, primary screen, teichoic acid synthesis inhibitors, RN4220, OD600 (AID 463173); details: OD600, 18 h, active compounds read low, screened at 18.75 µg/mL (by protocol)

Row | Compound | survival
1 | CCCNC(=O)CCn1nc(-c2ccccc2)c2ccccc2c1=O | inactive: 70%
2 | O=C(CSc1nnc(CNC(=O)c2ccccc2F)n1-c1ccccc1)Nc1ccccc1F | inactive: 73%
3 | CCC(Cn1nnc2ccccc2c1=O)NC(=O)Nc1ccc(C)cc1 (configuration not stated) | inactive: 55%
4 | Cc1ccc(S(=O)(=O)c2cnc(SC(C)C(=O)Nc3ccccc3)[nH]c2=O)cc1 (configuration not stated) | inactive: 71%
5 | CCOc1ccc(OCC)c(NC(=O)c2cc(CN3CCOCC3)on2)c1 | inactive: 84%
6 | COc1ccc2c(c1)c1c(c(=O)n(-c3ccc(C)cc3)c(=O)n1CC(=O)N1CCCC1)n2C | inactive: 88%
7 | CC(=O)OC(C(=O)NCc1ccc2c(c1)OCO2)c1ccccc1Cl (configuration not stated) | inactive: 87%
8 | CCOc1ccc(-n2ccn3c(CC(C)CC(=O)O)nnc3c2=O)cc1 (configuration not stated) | inactive: 182%
9 | Cc1ccccc1-c1nc2cc(NC(=O)c3cccc(OCCC(C)C)c3)ccc2o1 | inactive: 48%
10 | CCC12CN3CC(C)(CN(C1)C3c1ccccc1C)C2=O (configuration not stated) | inactive: 76%
11 | CCOC(=O)N1CCC(NC(=O)c2ccc3c(c2)N(Cc2ccccc2)C(=O)c2ccccc2S3=O)CC1 (configuration not stated) | inactive: 57%
12 | COc1cc(NC(=O)c2ccc(-c3nc(COc4ccccc4)c(C)o3)cc2)cc(OC)c1 | inactive: 91%
13 | O=C(c1ccco1)c1cn(CC(=O)N2CCc3ccccc32)c2ccccc12 | inactive: 79%
14 | CC(C)COC(=O)CNc1n[nH]c(=S)[nH]c1=O | inactive: 73%
15 | CCOc1ccc(N(CC)S(=O)(=O)N2CCCC(C(=O)Nc3ccc(OC)c(OC)c3)C2)cc1 (configuration not stated) | inactive: 108%
16 | CCOC(=O)C1CCCN(C(=O)c2cccc(NC(=O)c3nsc4ccccc34)c2)C1 (configuration not stated) | inactive: 97%
17 | Cc1ccc(NC(=O)CCNS(=O)(=O)c2ccc(Br)s2)cc1 | active: 50%
18 | COc1cc(C2C(=O)N(C3CCCCCC3)CC(=O)N2CCC2=CCCCC2)ccc1OC(C)C (configuration not stated) | inactive: 85%
19 | O=C(NCCS(=O)(=O)N1CCN(c2ccccc2F)CC1)C(c1ccccc1)c1ccccc1 | inactive: 95%

Row | Compound | survival
20 | O=C(Nc1ccccc1Cl)c1cc(S(=O)(=O)N2CCC3(CC2)OCCO3)ccc1F | inactive: 100%
21 | COc1cccc(C(=O)COc2cccc(NC(=O)c3ccco3)c2)c1 | inactive: 82%
22 | Cc1ccc(-c2nnc(Nc3ccc(O)cc3)c3ccccc23)cc1S(=O)(=O)N1CCN(C)CC1 | inactive: 90%
23 | O=c1[nH]n(CC2COC3(CCCCC3)O2)c(=O)c2ccccc12 (configuration not stated) | inactive: 96%
24 | COc1ccc(Nc2cc(C(=O)NCCc3ccc(C)cc3)c3ccccc3n2)c(OC)c1 | inactive: 83%
25 | CCOC(=O)N1CCC(NC(=O)c2c(C)nn(-c3ccc(C)cc3)c2-n2cccc2)CC1 | inactive: 55%
26 | CCCCOc1ccc(C(=O)Nc2nnc3n2CCS3)cc1 | inactive: 99%
27 | COc1ccc2cc3cc(C(=O)NCc4ccc(C)cc4)oc3nc2c1 | inactive: 83%
28 | Cc1cc(C)cc(NC(=O)CSc2nc3c(oc4ccccc43)c(=O)n2-c2ccccc2F)c1 | inactive: 74%
29 | COc1ccc(OC)c(CCNC(=O)c2ccc3c(c2)N(Cc2ccc(C)cc2)CCS3)c1 | inactive: 79%
30 | COc1ccc(NC(=O)Cn2nnc3sc4c(c3c2=O)CCC(C)C4)c(OC)c1 (configuration not stated) | inactive: 133%
31 | Cc1ccc(C)c(Cn2c3ccccc3c3cnn(CC(=O)NCCC4=CCCCC4)c(=O)c32)c1 | inactive: 81%
32 | COc1ccc(Cl)cc1NC(=O)c1sc(-n2nc(C)c(Cc3ccccc3)c2C)nc1C | inactive: 90%
33 | S=C(Nc1ccccc1)N1CCN(c2ccccc2)CC1 | inactive: 101%
34 | CCCn1c2ccccc2c2cnn(CC(=O)NCCc3ccc(OCC)cc3)c(=O)c21 | active: -5%
35 | CCOc1ccc(-c2nn(CC(=O)NC3CCCCC3)c3c2cnc2ccc(C)cc23)cc1 | inactive: 107%
36 | Cc1ccc(C(=O)NCCc2ccc(Cl)cc2)cc1-n1c(C)nc2cccnc21 | inactive: 94%
37 | COc1cc(-c2noc(-c3ccc(NCc4ccccc4)c([N+](=O)[O-])c3)n2)cc(OC)c1OC | inactive: 79%
38 | CCOc1ccc(NC(=O)CCNS(=O)(=O)c2ccc3c(c2)oc(=O)n3C)cc1 | inactive: 95%

Row | Compound | survival
39 | CCc1ccc(CNC(=O)CCC(=O)N2Cc3cccc(OC)c3Oc3ncccc32)cc1 | inactive: 75%
40 | COCC(C)NCc1cccc(Oc2ccccc2)c1 (configuration not stated) | inactive: 86%
41 | CCOc1cc(C(=O)N2CC(=O)Nc3ccc(C)cc3C2c2ccccc2)cc(OCC)c1OCC (configuration not stated) | inactive: 142%
42 | Cc1nnc(SCc2ccccc2)c2cc3sccc3n12 | inactive: 53%
43 | O=S(=O)(Nc1cccc(-c2ccc(N3CCCC3)nn2)c1)c1ccccc1C(F)(F)F | inactive: 61%
44 | O=C(C1CCCCC1)N1CCc2ccccc21 | inactive: 69%
45 | COc1ccc(N2CCN(c3oc(/C=C/c4ccc(F)cc4)nc3C#N)CC2)cc1 | inactive: 84%
46 | CCc1ccc(CN(Cc2ccco2)C(=O)c2ccc(OC)cc2)cc1 | active: 52%
47 | COCCn1c(CNC(=O)c2ccc(C)cc2)nc2cccnc21 | inactive: 72%
48 | CCN(CC)CCOC(=O)c1ccc(NC(=O)Cn2ncc3c([nH]c4ccc(C)cc43)c2=O)cc1 | inactive: 86%
49 | Cc1ccccc1CS(=O)(=O)CC1Nc2ccc(C(=O)NCc3ccc(Cl)cc3)cc2NC1=O (configuration not stated) | inactive: 79%
50 | Cc1ccc(-n2nc(C)c(C(=O)NCCCN3CCN(c4ccc(F)cc4)CC3)c2-n2cccc2)cc1 | inactive: 92%
51 | Cc1ccc(C)c(Cn2c3ccccc3c3cnn(CC(=O)NCCCc4ccccc4)c(=O)c32)c1 | inactive: 126%
52 | CCOc1ccc(-c2nonc2NC(=O)c2oc3c(C)c(C)ccc3c2C)cc1OCC | active: 34%
53 | Cc1cc(C)cc(OC(C)C(=O)Nc2nonc2-c2ccc(Br)cc2)c1 (configuration not stated) | active: 14%
54 | Cc1nnc(SCC(=O)n2c3ccccc3c3ccccc32)s1 | inactive: 89%
55 | O=C(Nc1cccc(C(=O)OCc2cc(=O)n3nc(C4CC4)sc3n2)c1)c1ccccc1 | active: 6%
56 | Cc1ccccc1NC(=O)CSc1nnc(C)c(=O)[nH]1 | inactive: 83%
57 | CN(c1ccc(O)cc1)c1nc(-c2cccs2)cs1 | active: 1%
